The subject of the data set is ATP. The data set is described as follows: switch fluorescence ratio, 500 uM ATP over buffer (Cy3 cluster intensity, sum of 5 cycles each) (fold (ratio)); higher = stronger signal-on switching upon ATP binding; sequences stand for … in TCGTCGGCAGCGTCAGATGTGTATAAGAGACAGTTTTTTTTTTTTTTTTTTTTTTTTT…TC. The following applies: aptamer strand: ATP DNA aptamer (quencher-CACCTGGGGGAGTATTGCGGAGGAAGG + anchor), 100 nM annealed; ATP concentration: 500 uM; one replicate. In outline:
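Between each of five buffer/ATP cycles, the flow-cell was stripped with NaOH and re-annealed. Each cycle imaged Cy3-labelled switching-strand clusters, annealed to 100 nM quencher-labelled ATP aptamer on a modified Illumina MiSeq flow-cell, first in selection buffer and then after 15 min with 500 uM ATP at 22 °C. The fluorescence ratio is summed target-cycle over summed buffer-cycle Cy3 intensity per cluster, averaged per switch-domain sequence, with clusters outside 100-1000 RFU excluded.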

Values marked as one replicate rest on one cluster of the flow cell; about a third of the high ones do not repeat.

We go through 120 sequences from the supplement of paper PMC10126150.
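Also: ATP exposure 15 min at 22 °C before imaging.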

Consider ACATCGTTGT, for which the switch fluorescence ratio came out at 0.964.

With AAGTTCTTAC, the switch fluorescence ratio came out at 0.992.

Take CCAACACAAT: the switch fluorescence ratio stood at 3.91.

Turning to TTAAATATTC, the switch fluorescence ratio is 0.995.

Regarding CTCAAAAGAT, the switch fluorescence ratio came to 1.06.

Turning to TGTTAGTAGA, the switch fluorescence ratio was 1.03.

CGAGATCGGG: the switch fluorescence ratio came to 0.982.

As to CGTATGGTTT, the switch fluorescence ratio was 0.965.

Consider GATCAGTATT, for which the switch fluorescence ratio was 0.995.

Turning to AAATTGACGC, the switch fluorescence ratio was 1.06.

Consider ATATTGCCCG, for which the switch fluorescence ratio was determined as 0.95.

In the case of GTTGATAGTT, the switch fluorescence ratio stood at 0.988.

As to AATTTCATCT, the switch fluorescence ratio amounted to 1.

Turning to GAAGGACGT, the switch fluorescence ratio was found to be 0.993.

As to CTTACAGGCG, the switch fluorescence ratio amounted to 1.03.

Regarding CCCTGCGAAG, the switch fluorescence ratio was determined as 1.08.

Turning to ATTAAGGGC, the switch fluorescence ratio was 0.946.

For the sequence ATGACCGAGT, the switch fluorescence ratio came to 1.02.

As to ACTTCCGTGG, the switch fluorescence ratio worked out at 1.23.

For CAACAACATC, the switch fluorescence ratio was determined as 0.983.

AGGGGCGGAC: the switch fluorescence ratio worked out at 0.974.

As to TTGTGGTGAT, the switch fluorescence ratio was 1.02.

In the case of GCTGTTACTA, the switch fluorescence ratio was determined as 0.966.

Consider TCATACAGCA, for which the switch fluorescence ratio is 1.09.

On to GTGATGGGAA, for which the switch fluorescence ratio worked out at 1.04.

As for ACGGCGAACG, the switch fluorescence ratio turned out to be 0.988.

Take ACTCGAGTAT: the switch fluorescence ratio amounted to 0.976.

For TCGAATGTTG, the switch fluorescence ratio turned out to be 1.

Turning to GCCGCCGTAT, the switch fluorescence ratio was 0.999.

As for GACTAGGGTG, the switch fluorescence ratio is 1.02.

In the case of TAAACCGAC, the switch fluorescence ratio stood at 3.01.

On to CGCTTTACTT, for which the switch fluorescence ratio was determined as 1.36.

For ACTGTGTCGG, the switch fluorescence ratio was determined as 1.

As to AGCAGGCTGG, the switch fluorescence ratio worked out at 0.995.

As for TAAGAAAGA, the switch fluorescence ratio is 1.02.

Regarding CTGCGGACGT, the switch fluorescence ratio was found to be 1.04.

Consider CACGCATCTT, for which the switch fluorescence ratio was found to be 0.99.

In the case of AGCATGTCTT, the switch fluorescence ratio is 1.

As to CGTGAGTGTT, the switch fluorescence ratio amounted to 0.967.

Turning to CTTCCATGGT, the switch fluorescence ratio is 1.05.

Take GCGAACACGA: the switch fluorescence ratio came to 1.15.

Turning to ACAAGTCGTC, the switch fluorescence ratio worked out at 1.01.

For the sequence CAGCTAGATT, the switch fluorescence ratio is 1.04.

Regarding TCTGCCACTT, the switch fluorescence ratio turned out to be 0.986.

Take TCATTATATT: the switch fluorescence ratio is 1.05.

CACGTAATTT: the switch fluorescence ratio came out at 1.21.

CAAAAGTGCA: the switch fluorescence ratio is 1.08.

In the case of TTGATGCTT, the switch fluorescence ratio was 0.962.

On to CCCCGGTGAT, for which the switch fluorescence ratio came to 5.51.

As for TTTCGTCAGT, the switch fluorescence ratio amounted to 1.25.

Regarding AGGTCGTAGA, the switch fluorescence ratio came out at 0.999.

Regarding GCTATCTCGA, the switch fluorescence ratio was found to be 1.01.

In the case of TAGCGATTTG, the switch fluorescence ratio was 1.02.

TGGTCTACTT: the switch fluorescence ratio was 1.04.

With TTGTCTTCCG, the switch fluorescence ratio came to 1.09.

Take GCCGATACTC: the switch fluorescence ratio was 2.21.

Turning to CAGGAACCGG, the switch fluorescence ratio was 1.02.

For the sequence TCTCGGAACC, the switch fluorescence ratio stood at 1.11.

AGATATAGTA: the switch fluorescence ratio came to 1.02.

With TGCGAATCGC, the switch fluorescence ratio came to 1.06.

As to AATTGATGAT, the switch fluorescence ratio came to 1.01.

For the sequence TGCCACGGCG, the switch fluorescence ratio came out at 0.958.

Take ACCACAAGTG: the switch fluorescence ratio was 1.23.

With CCTTTTAACA, the switch fluorescence ratio stood at 1.01.

On to AAGTCCAAGG, for which the switch fluorescence ratio was 1.02.

Consider AGCCGAGAGG, for which the switch fluorescence ratio was found to be 0.988.

Consider CCCTTTAGGA, for which the switch fluorescence ratio stood at 1.01.

ATACAAGGTT: the switch fluorescence ratio stood at 0.958.

Regarding ATCAATCATC, the switch fluorescence ratio was 0.997.

As to TTCAAATTAT, the switch fluorescence ratio was 0.992.

Take CTCATCTGGT: the switch fluorescence ratio was 0.976.

Consider CTGAAAGT, for which the switch fluorescence ratio came out at 0.956.

TATCGAACA: the switch fluorescence ratio amounted to 0.995.

In the case of CGGGCACTGT, the switch fluorescence ratio turned out to be 1.02.

Turning to ACGCATGACC, the switch fluorescence ratio worked out at 2.13.

With CTTGGATCCA, the switch fluorescence ratio turned out to be 0.978.

TTAGGTTGAA: the switch fluorescence ratio was determined as 1.02.

CGAGCGCTTA: the switch fluorescence ratio was found to be 1.22.

Consider AACATTGTAT, for which the switch fluorescence ratio turned out to be 0.96.

On to TTGTACTGGC, for which the switch fluorescence ratio came to 1.12.

Consider GATGTATCTA, for which the switch fluorescence ratio amounted to 0.977.

AGAGTTCTGA: the switch fluorescence ratio was found to be 1.02.

With GGGGTTCTAA, the switch fluorescence ratio is 1.

Turning to ATTCTACTG, the switch fluorescence ratio amounted to 0.951.

Turning to TCATCGCTTA, the switch fluorescence ratio turned out to be 1.14.

On to GGGGGTTCGC, for which the switch fluorescence ratio came to 0.971.

For GAATGGGT, the switch fluorescence ratio came out at 1.01.

With GGTTTAGAAC, the switch fluorescence ratio is 0.985.

On to TTCGCAGATT, for which the switch fluorescence ratio is 0.996.

On to TGCACTGATG, for which the switch fluorescence ratio was found to be 1.05.

As to GTAAGTCTA, the switch fluorescence ratio amounted to 1.01.

In the case of CCTCCCCGTT, the switch fluorescence ratio was found to be 1.68.

GGTGCGGGGA: the switch fluorescence ratio was 1.04.

As to CCTCTCTGTT, the switch fluorescence ratio worked out at 0.998.

With GGGATTGGTA, the switch fluorescence ratio was determined as 0.978.

Take GATAAGGTGC: the switch fluorescence ratio was determined as 1.24.

As for GTTCCTGT, the switch fluorescence ratio stood at 0.941.

Turning to CGGTACGTAC, the switch fluorescence ratio turned out to be 1.37.

Take GAGTGGGAAT: the switch fluorescence ratio was determined as 1.01.

With ATCTACCAAT, the switch fluorescence ratio worked out at 1.12.

Take TTAGGTCATT: the switch fluorescence ratio was determined as 0.992.

In the case of TTTAGTAGTG, the switch fluorescence ratio was found to be 0.982.

In the case of TGTATCGGAT, the switch fluorescence ratio worked out at 1.01.

As to ATTCCCGGGT, the switch fluorescence ratio came out at 1.01.

On to GTTTTACAGC, for which the switch fluorescence ratio stood at 0.993.

On to GTGGTACCGC, for which the switch fluorescence ratio is 1.03.

Consider TGATGTGACC, for which the switch fluorescence ratio worked out at 0.999.

With TGCTCAGATT, the switch fluorescence ratio came out at 1.02.

For ACTCAAGGTC, the switch fluorescence ratio stood at 1.06.

With GAGTAGATGA, the switch fluorescence ratio was 0.965.

Consider AATTAGAACT, for which the switch fluorescence ratio came out at 1.01.

For the sequence AAGGGGCG, the switch fluorescence ratio came out at 1.13.

On to CTTACGCACT, for which the switch fluorescence ratio amounted to 1.31.

Regarding ACCGTCACCG, the switch fluorescence ratio was 1.24.

For the sequence CTAGCGGTTG, the switch fluorescence ratio turned out to be 0.988.

With GTAGCCTATT, the switch fluorescence ratio is 1.04.

With GGCATCTCC, the switch fluorescence ratio amounted to 1.1.

As to GGGAAACCC, the switch fluorescence ratio was 1.03.

Turning to GGATAAGCTG, the switch fluorescence ratio is 1.03.

For the sequence GGGTCTACCT, the switch fluorescence ratio amounted to 1.03.
